# Measured values: patent US20230219969A1 (priority 2020, published 2023)
# Read-outs that look alike come from different tables or passages of the source.
# Tests used:
# 5HT2A [1] = format: cell-based; details: agonist mode, relative to positive control 5-HT at 100 uM
# 5HT2A [2] = details: antagonist mode (Table 8), inhibition of 5HT response, 5-HT at 100 nM
Compound,5HT2A Agonist mean @ 100 nM (%) (5HT2A [1]),5HT2A Agonist mean @ 10 μM (%) (5HT2A [1]),5HT2A Agonist mean @ 100 μM (%) (5HT2A [1]),5HT2A Agonist mean @ 100 nM (%) (5HT2A [2]),5HT2A Agonist mean @ 10 μM (%) (5HT2A [2]),5HT2A Agonist mean @ 100 μM (%) (5HT2A [2])
"COc1cc2ccn(CCN(C)C)c2cn1 [Example 4, 2-(5-methoxy-1H-pyrrolo[2,3-c]pyridin-1-yl)-N,N-dimethylethan-1-amine]",B (does not activate 5HT2A sensor assay in agonist mode),B (does not activate 5HT2A sensor assay in agonist mode),A (activates 5HT2A sensor assay in agonist mode),C (inhibits 5HT response by < 75%),C (inhibits 5HT response by < 75%),A (inhibits 5HT response by > 100%)
"COc1ccc2c(ccn2CCN(C)C)n1 [Example 3, 2-(5-methoxy-1H-pyrrolo[3,2-b]pyridin-1-yl)-N,N-dimethylethan-1-amine]",B (does not activate 5HT2A sensor assay in agonist mode),B (does not activate 5HT2A sensor assay in agonist mode),–,C (inhibits 5HT response by < 75%),C (inhibits 5HT response by < 75%),–
"CN(C)CCn1ccc2cncnc21 [Example 6, N,N-dimethyl-2-(7H-pyrrolo[2,3-d]pyrimidin-7-yl)ethan-1-amine]",B (does not activate 5HT2A sensor assay in agonist mode),B (does not activate 5HT2A sensor assay in agonist mode),B (does not activate 5HT2A sensor assay in agonist mode),C (inhibits 5HT response by < 75%),C (inhibits 5HT response by < 75%),A (inhibits 5HT response by > 100%)
"COc1cnc2c(ccn2CCN(C)C)c1 [Example 5, 2-(5-methoxy-1H-pyrrolo[2,3-b]pyridin-1-yl)-N,N-dimethylethan-1-amine]",B (does not activate 5HT2A sensor assay in agonist mode),B (does not activate 5HT2A sensor assay in agonist mode),B (does not activate 5HT2A sensor assay in agonist mode),C (inhibits 5HT response by < 75%),C (inhibits 5HT response by < 75%),A (inhibits 5HT response by > 100%)
"COc1ccc2c(c1)CCN2CCN(C)C [Example 8, 2-(5-methoxyindolin-1-yl)-N,N-dimethylethan-1-amine]",B (does not activate 5HT2A sensor assay in agonist mode),B (does not activate 5HT2A sensor assay in agonist mode),B (does not activate 5HT2A sensor assay in agonist mode),C (inhibits 5HT response by < 75%),C (inhibits 5HT response by < 75%),C (inhibits 5HT response by < 75%)
